# Recombinant human monoclonal antibodies (heavy:light variable regions). ELISA EC50 on the named antigen, from 10 µg/ml down; lower = stronger. No active / inactive call.
# Molecular target: SARS-CoV-2 Wuhan-Hu-1 spike receptor-binding domain
# Experiment: ELISA binding EC50; higher = weaker binding; ELISA of recombinant human antibody on coated antigen, from 10 µg/ml in fourfold dilutions; four-parameter fit.
row,Binder,ELISA binding EC50 [ng/mL]
1,C869 (protein) chain 1: QVQLVESGGGVVQPGTSLRLSCAASGFTFSSFGMNWVRQAPGKGLEWVAVIFFDGSKTYYADSVKGRFTISRDNSKNTLYLQMNSLRTEDTAVYYCAKGQLRLGEFDDYWGQGTLVTVSS chain 2: DIQMTQSPSSLSASVGDRVTITCRASQDIRDDLNWYQHKPGKAPKLLIYTASSLQSGVPSRFSGSGSGTDFTLTISRLQPEDFASYYCLQDHNYPLTFGQGTKLEIK,3.14
2,C870 (protein) chain 1: EVQLVESGGGLVQPGKSLRLSCAGSGFAFSSYHMNWVRQAPGKGLEWVAYISSGSSTIHYADSVKGRFTISRDNAKNSFYLQMNSLRAEDTALYYCARAIVGTKGYMDVWGKGTTVTVSS chain 2: QSALTQPASVSGSPGQSVTISCTGTRSDVGSYDLVSWYQLHADKAPKLIIYEVTSRPSGISTRFSGSKSGNTASLTISGLQAEDEADYYCCSYAGTTWLFGGGTRLTVL,2.17
3,C950 (protein) chain 1: QVQLVESGGGLVKPGGSLRLSCAASGFTFSDYCVTWIRQAPGKGLEWLSYSNTNDSSRSYADSVKGRFTISRDNAKNSLYLQMDSLRAEDTAVYYCARRGDGNVPLFHYYYMDVWGKGTTVTVSS chain 2: QSVLTQPPSASGTAGQRVTISCSGGSSNIGSNTVHWYQQLPGTAPKLLIYSNYKRPSGVPDRFSGSKSGASASLAISGLQSEDEAEYYCAAWDDSANGPIFGGGTKLTVL,2.15
4,C871 (protein) chain 1: EVQLVESGGGLIQTGGSLKLSCAASGFIVTNNYMSWVRQAPGKGLEWVSVIYSGGTTYYADSVKGRFTISRDISKNTLYLQMNSLKAEDTAVYYCAREGDVEGISDSWSGYSRDRYYFDHWGQGTLVTVSS chain 2: QSALTQPASVSGSPGQSITISCTGTSSDVGGYNYVSWYQQHPGKAPKLMIYDVSNRPPTISNRFSGSKSGNTASLIISGLQPEDEADYYCSSFTSNNTRVFGTGTKVTVL,1.52
5,C872 (protein) chain 1: EVQLVESGGGLIQPGGSLRLSCAASGFIVSNNYISWVRQAPGKGLEWVSVIYSGGTTYYADSVKGRFSISRDTSKNTVYLQINNLRAEDTAVYYCAREGDVDGNYGFWSGYSRDRYYFDYWGQGTLVTVSS chain 2: QSALTQPASVSGSPGQSITISCTGTSSDVGAYNYVAWYQQHPGKAPKLMVYDVSKRPSGVSNRFSGSKSGNTASLTISGLQTEDEGDYYCCSYTTNTTRVFGTGTMLTVL,2.19
6,C874 (protein) chain 1: QVQLVQSGPEVKKPGASVKVSCKASGYIFTDYSIHWVRQAPGQGLEWMGWINPNSGGGNSAQIFKGRATMARDTSITTVYMDLSGLRSDDTAVYYCARGPLFHKVVYESSSGFHDGLDFWGQGTMVTVSS chain 2: NFMLTQPHSVSESPGKTVTISCTGSSGSIASNYVQWYQQRPGSAPTTVIYEDNQRPSGVPDRFSGSIDSSSNSASLTISGLKTEDEADYYCQSYDSSNYWVFGGGTKLTVL,5.2
7,C875 (protein) chain 1: QVQLVQSGAEVKQPGASVKISCKASGYIFTTYFMHWVRQAPGQGLEWLGIIDPTISGASLAQKFQGRVTMTSDTSTSTVYMEMRSLRSDDTALYFCARASTSTSSWSEALSLGSWGQGTLVTVSS chain 2: QSVLTQPPSVSGAPGQGVSISCTGSSSNVGAGYGVHWYQQLPGTTPKLLIYDNNSRPAGVPDRFSGSKSGTSASLAIAGLQPEDEADYYCQSWDNGLSGSGVVFGGGTKVTVL,3.5
8,C876 (protein) chain 1: EVQLVESGGGLIQPGGSLRLSCAASEFVISRNYMSWVRQAPKKGLEWVSVLYSGGSTFYADSVKGRFTISRDDSRNMLYLQMNSLRAEDTAVYYCVRDFGEFYFDYWGQGVLVTVSS chain 2: EIVMTQSPTTLSVSPGERATLSCRASQSLSSNLAWYQQKPGQAPRLLIFGVSTRATGIPARFSGSGSGTEFTLTISSLQSEDFAVYYCQQYYSGPRTFGQGTKVEIK,3.53
9,C877 (protein) chain 1: EVQLVESGGGLIPPGGSLRLSCAASGIIVSRNYMSWVRQTPGKGLEWVSVMYAGGTKEYADSVKGRFIISRDDSNNTLYLQMNSLRAEDTAVYYCARDLIVLGVDVWGQGTTVTVSS chain 2: DIQLTQSPSFLSASVGDRVTITCRASQGISNYLAWYQQKPGKAPKLLIYAASTLQSGVPSRFSGSGSGTEFTLTISSLQPEDFATYYCQLLNSYPMCSFGQGTKLEIK,2.53
10,C878 (protein) chain 1: EVQLVESGGGLVQPGGSLRLSCSVSGFTFSNFAMHWVRQAPGKGLEFVSGVSSDGDITDYADSVKGRFTISRDNSKNTLYLQMSSLRPEDTAVYYCVKDKEHSTMVTIFDFWGQGTLVTVSS chain 2: DIQMTQSPSSLSASVGDRVTITCRASQSISSFLNWYQQKPGKAPKLLIYAASSLQSGVPSRFSGRGSGADFTLTITSLQPEDFATYFCQQSYSSHLTFGPGTKVDIK,2.88
11,C879 (protein) chain 1: QVQLQESGPGLVKPSQTLSLTCGVSGDSISSGGHFWSWVRQHPGTGLEWIAYSPFSGTTYYNPSLKSRVTLSVDTSKNQFFLSLTSVTDADTAVYFCARVKGWLRGYFDHWGQGVLVTVSS chain 2: NFMLTQPHSVSESPGKTVTISCTASSGNIVNNYVQWYQQRPGSAPIIVIYEDAQRPSGVPDRFSGSIDTSSNSASLTISGLKTEDEADYYCQSYEIDSHVVFGGGTRLTV,4.25
12,C880 (protein) chain 1: QVQLQQWGAGLLKPSETLSLTCAVYGGSFSDYYWSWIRQPPGKGLEWIGENNHSGKTNYNPSLENRVTISVDTSKNQFSLKLTSVTAADTAVYYCARESGSYGTFDYWGQGTLVTVSS chain 2: EIVLTQSPGTLSLSPGERATLSCRASQSVSSAYLAWYQQKPGQAPRLLIYGASSRATGIPDRFSGSGSGTDFTLTISRLEPEDFAVYFCQQYAYTIWTFGQGTKVEIK,2.2
13,C881 (protein) chain 1: EVQLVESGGGLIQPGGSLRLSCAVSGVAVSTNYMSWVRQAPGQGLEWVSTIYSGDTTYYSDSVKGRFTISRDNSKNTFYLQMNSLRVPDTAVYYCARLGGVFNGFNGSFDYWGQGTLVTVS chain 2: QSALTQPASVSGSPGQSITISCIGTSSDFENYNLVSWYQQHPGKAPKVMIYEDTKRPSGVSNRFSGSKSANTASLTISGLQAEDEAEYYCCSYAGASTWVFGGGTRVTVV,1.44
14,C837 (protein) chain 1: QVQLVESGGGVVQPGRSLRLSCEASRFTFRSHAMHWVRQAPGKGLEWVAVIWYDGKNEYYADSVKGRFTISRDNSKKMVYLQMNNLRAEDTAVYYCAREGIAAPDSKADAFDIWGQGTMVTVSS chain 2: QSVLTQPPSASGTPGQRVTIPCSGGSSNIGSNTVHWYQQVPGTAPKLLVYGNNRRPAGVPDRFSGSRSGASASLAITGLQSEDEAVYYCATWDDSPNGPVFGGGTKLTVL,2.03
15,C882 (protein) chain 1: QVQLVESGGGVVQPGRSLRLSCAASGFTFIRYNMHWVRQAPGKGLEWVAVIWYDGSNKYYADSVKGRFTISRDNSKNTLYLQMNSLRAEDTAVYYCARDPMIVVVEMDYWGQGTLVTVSS chain 2: DVVMTQSPLSLPVTLGQPASISCNSSQSLVHTDGNTYLNWFQQRPGQSPRRLIYKVSNRDSGVPDRFSGSGSDTDFTLQISRVEADDVGVYYCMQGSHWPYTFGQGTKLEIK,2.9
16,C884 (protein) chain 1: QVQLQQWGAGLLKPSETLSLTCVVYGGSFSAYYWSWIRQPPGKGLEWIGEINHSGSTNYKSSLQSRVTISVDTSKNQFSLKLSSVTAADTAVYYCARETGTYGTFDHWGQGTLVTVSS chain 2: EIVLTQSPGTLSLSPGERATLSCRASQSVSSTYLAWYQQKPGQAPRLLIYGASSRATGIPDRFSGSGSGTDFTLTISRLEPEDFAVYYCQQYAFSVWTFGQGTKVEI,4.22
17,C885 (protein) chain 1: QVQLQESGPGLVKPSQTLSLTCAVSGDSIRSGGYYWSWVRQHPGRGLEWIGYIYFSGTTYYNPSLKSRVTISVDTSEKQFSLKLTSVTDADTAVYFCARVKGWLRGYFDYWGQGALVTVSS chain 2: NFMLTQSHSVSESPGKTVTISCTGSSGNIVNNYVQWYQQRPGSAPIIVIYEDTQRPSGVPDRFSGSIDTSSNSASLTISGLKTEDEADYYCQSYDSGSHVVFGGGTKLTV,7.45
18,C886 (protein) chain 1: EVQLVESGGDLVQPGGSLRLSCAASGFSVTTNAMAWVRQAPGKGLEWISYINIGSANIQYADSVKGRFTISRDNAKNSLYLQMNSLRDEDTAVYYCARGDCTSSSCYSLDYWGQGALVTVSS chain 2: DIQMTQSPSSLSASVGDRVSITCRASQTINTHLSWYLQKPGEAPRLLVYAASTLHSGVPSRFSGSGSGTDFTLTISSLQPEDFATFYCQQTYRFPLTFGGGTKVEIK,2.48
19,C887 (protein) chain 1: EVQLVESGGDLVQPGGSLRLSCAASGFTFTTYSMSWVRQAPGKGLEWISYINSGSANIHYADSVKGRFTVSRDNAKNSLYLQMNSLRDEDTAVYYCARGDCLSSSCYSLDYWGQGALVTVSS chain 2: DIQMTQSPSSLSASVGDRVTITCRASQSITSYLSWYLQKPGEAPKLLIYAASILQSGVPSRFGGNGSGTDFTLTISSLQPEDFATFYCQQTYRSPLTFGGGTKVEIK,2.53

# Reference: the supplement of paper PMC8277577
